Source: PubChem BioAssay AID1346428 (National Center for Advancing Translational Sciences (NCATS), 2018)
The whole screen tested about 48,000 compounds, of which about 1,200 (2.5%) were called active. Roughly 2% stayed inconclusive and do not appear here.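 The calls were made as follows: active = activation of at least 60% and not above a set upper limit (about 1 call in 100 departs from these limits); inconclusive = activation of 40% to 60%, or above that upper limit; inactive = activation under 40%.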 Some of the results follow.

molecular target: Probable G-protein coupled receptor 32 (Homo sapiens) (UniProt O75388); assay: qHTS for Agonists of Human Resolvin D1 Receptor DRV1; details: CHO-K1 GPR32 beta-arrestin PathHunter luminescence, 90 min; at 76.9 µM; active compounds read high; zero percent set by DMSO-only wells; also: 0% is about no effect
Method in brief: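 Agonism was scored by beta-Gal fragment complementation (chemiluminescent read, 1 h detection at ambient temperature) reporting beta-arrestin binding to GPR32 in engineered CHO-K1 cells. Compound treatment lasted 90 min at 37 C, normalized to a DMSO basal control.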

Sequence of UniProt O75388 (O75388 whole entry, looked up, the tested form may be a part): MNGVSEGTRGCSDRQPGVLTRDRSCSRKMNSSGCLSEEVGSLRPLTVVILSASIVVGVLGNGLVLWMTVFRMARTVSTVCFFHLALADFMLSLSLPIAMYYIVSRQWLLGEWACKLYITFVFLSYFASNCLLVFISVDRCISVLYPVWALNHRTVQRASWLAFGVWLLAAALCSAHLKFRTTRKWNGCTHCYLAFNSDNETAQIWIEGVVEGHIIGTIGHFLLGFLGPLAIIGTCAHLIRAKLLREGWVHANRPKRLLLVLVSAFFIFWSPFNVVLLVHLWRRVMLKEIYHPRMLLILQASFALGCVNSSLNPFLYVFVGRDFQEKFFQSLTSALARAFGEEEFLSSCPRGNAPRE

activation, inactive:
Cc1ccc(NC(=O)N2CCN(c3nnc(C)c4c(C)n(-c5ccc(Cl)cc5)nc34)CC2)c(C)c1 2.59%, CC(C(=O)O)c1ccc(C(=O)c2ccccc2)s1 (configuration not stated) -12.1%, COc1ccc2c(c1)c1c(c(=O)n(-c3ccc(OC)c(OC)c3)c(=O)n1CC(=O)N1CCCC1)n2C -2.35%, CCOc1ccc(OCC)c(NC(=O)CCc2nc3cccnc3n2Cc2cccs2)c1 -24.3%, CCOC(=O)c1cccc(NC(=O)CC2C(=O)N(c3ccc(C)cc3)C(=O)N2Cc2cccc(OC)c2)c1 (configuration not stated) -8.79%, COc1cc(Cl)c(C)cc1NC(=O)CSc1nc2c(c(=O)[nH]1)CCCC2 25.6%, CN(C)c1ccc(CNC(=O)c2cnc3sc(N4CCCCCC4)nn3c2=O)cc1 -1.37%, CCCCNC(=O)CCCn1c(=O)c2ccccc2n(Cc2c(C)cc(C)cc2C)c1=O -3.94%, COC(=O)N1CCCc2cc(S(=O)(=O)N3CCN(c4ccccc4)CC3)ccc21 -8.48%, Cc1ccc(C)c(Cn2c(=O)n(CCC(=O)NCc3ccc4c(c3)OCO4)c(=O)c3sccc32)c1 -22.1%, Cc1cccc(Cc2c(C)nc3nc(SCc4ccccc4Cl)nn3c2C)c1 -6.53%, CCOc1ccc(NC(=O)C2CCN(S(=O)(=O)c3c(C)noc3/C=C/c3cccs3)CC2)cc1 -19.2%, CCCCNC(=O)CN1C(=O)COc2ccc(S(=O)(=O)N3CCCCCC3)cc21 -15.7%, Cn1cccc1-c1cc2n(n1)CCC(=O)N2CCCC(=O)NCc1ccc(F)cc1 -15.3%, COc1ccc(C(=O)Nc2ccc3oc(-c4ccc5ccccc5c4)nc3c2)cc1Br -11.5%, COC(=O)CNC(=O)N1CCN(S(=O)(=O)c2ccc3c(ccn3C)c2)CC1 -5.24%, CCOc1ccc(-c2nnc(SCC(=O)c3ccccc3)n2-c2ccccc2)cc1 -2.21%, Cc1ccc(NC(=O)c2ncoc2-c2ccco2)cc1Cl -8.34%, Cc1cccc(C)c1NC(=O)Cn1c(SCC(=O)NCc2ccccc2)nc2ccccc21 -2.73%, Cc1cc(=O)[nH]c2nnc(SCc3ccc(C(F)(F)F)cc3)n12 36.2%, CCOC(=O)c1[nH]c(C)c(CCC(=O)Nc2cccc(SC)c2)c1C -11.2%, COc1ccc2cc(CNc3ccc(OC)c(OC)c3)c(=O)n(CC(=O)Nc3ccccc3F)c2c1 -16.4%, CC(C)CCNC(=O)c1ccc2c(c1)N(Cc1ccccc1F)C(=O)c1ccccc1S2(=O)=O -10.6%, O=S(=O)(c1ccc(-c2csc(=Nc3ccc(OC(F)(F)Cl)cc3)n2CCCO)cc1)N1CCCC1 1.14%, O=C(Nc1cc2ccc(O)cc2oc1=O)c1ccccc1 -10.9%, Fc1cccc(Cl)c1CNCCSc1nnnn1-c1ccccc1 -9.42%, COc1cccc(C(=O)N(Cc2ccco2)c2ccccn2)c1 -4.1%, O=C(CNC(=O)c1ccccc1F)OCc1cc(=O)n2nc(C3CCCCC3)sc2n1 9.46%, CCOC(=O)c1ccc(NC(=O)CSc2nccn2-c2cc(C)cc(C)c2)cc1 -1.88%, CCOc1ccccc1NC(=O)Nc1cc2c(cc1N1CCCCC1)n(CC)c(=O)n2CC -31%, O=C1CC(c2ccc(F)cc2)c2c(c3ccccc3[nH]c2=O)O1 (configuration not stated) 5.9%, CC(=O)c1ccc(N2CCN(C(=O)CCn3cnc4onc(-c5ccc(F)cc5)c4c3=O)CC2)cc1 29.2%, CC(=O)N(CC(O)CN(C(C)=O)c1c(I)c(C(=O)NCC(O)CO)c(I)c(C(=O)NCC(O)CO)c1I)c1c(I)c(C(=O)NCC(O)CO)c(I)c(C(=O)NCC(O)CO)c1I (configuration not stated) -9.79%, O=C(Nc1c(-c2ccccc2)nc2ccccn12)c1ccccc1F -0.759%, Cc1ccc(-c2noc(-c3cc(-c4ccc(F)cc4)n[nH]3)n2)cc1 6.12%, CCn1cc(C(=O)NCCc2ccc(C)cc2)c(=O)c2cc(S(=O)(=O)N3CCc4ccccc4C3)ccc21 10.4%, Cc1cc(C)cc(NC(=O)CNS(=O)(=O)c2ccc3nc(C)sc3c2)c1 -9.22%, CN1C(=O)Cc2cc(S(=O)(=O)CCC(=O)Nc3ccc(OC(F)(F)F)cc3)ccc21 -8.97%, CCOc1ccc(OC(=O)c2c(-c3ccccc3Cl)noc2C)cc1 30.2%, CCN(C(=O)C1CCCN(c2ncnc3c2nc2n3CCCCC2)C1)c1cccc(C)c1 (configuration not stated) 26.6%, Cc1ccc(NC(=O)CN2C(=O)c3ccccc3Sc3ccc(C(=O)N4CCOCC4)cc32)c(Cl)c1 -24.8%, CCN(CC)S(=O)(=O)c1ccc2oc(C(=O)Nc3cc(C)ccc3OC)c(C)c2c1 -4.95%, CCc1cc2c(cc3c(=O)n(CC(=O)NCc4cc(Br)ccc4OC)ncn32)s1 -12.6%, CCc1cc2c(cc3c(=O)n(CC(=O)NC4CCCCC4)nc(CC)n32)s1 -1.84%, Cc1cn(C)c(CC(=O)N2CCN(c3cccc(C(F)(F)F)c3)CC2)c1C(=O)O 1.14%, CCOC(=O)CCN(c1ccccc1)S(=O)(=O)c1cc(-c2cc(C)no2)ccc1C -25.6%, Cc1ccc(C(=O)NCC(=O)OCc2cc(=O)n3c(C)csc3n2)cc1 0.748%, CC(=O)N1CCc2c(sc3c2c(=O)n(-c2ccccc2C)c(=O)n3CC(=O)c2ccccc2)C1 -0.946%, Cc1cc(C)c2oc(C(=O)Nc3c(C)n(C)n(-c4ccccc4)c3=O)cc(=O)c2c1 -1.41%, O=C(NCC(c1cccnc1)N1CCc2ccccc21)c1ccc(F)c(F)c1 (configuration not stated) -29.2%, Cc1cccc(C(=O)Nc2cccc(OCc3cc(=O)n4cc(C)sc4n3)c2)c1 3.02%, Cc1ccc(C(C)C)c(OCC(=O)NCC2(N3CCOCC3)CCCCC2)c1 -28.5%
